Results from PubChem BioAssay AID504332 (National Center for Advancing Translational Sciences (NCATS), 2011).
The whole screen tested about 350,000 compounds, of which about 31,000 (8.9%) were called active. The shares of active, inactive and inconclusive entries below differ from those in the screen. Calls follow the shape of the dose curve; as a rule, active = well fitted inhibition curve with a large enough effect; inconclusive = small, poorly fitted or top-dose-only effect; inactive = no such curve, though single readings can be large or run the other way. Potencies beside an inconclusive call are fits to weak or partial responses and may not hold up.

Biological target: Histone-lysine N-methyltransferase EHMT2 (Homo sapiens) (UniProt Q96KQ7)
Assay: qHTS Assay for Inhibitors of Histone Lysine Methyltransferase G9a; also: nearly all actives have a fitted effect of over 75% in size
Conditions: G9a H3K9 monomethylation, AlphaScreen, 2 h; activity, negative = inhibition: at 59 µM (top of the series) unless noted
Summary of the method: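 Enzyme 20 nM + cpd, 15 min RT; add b-H3K9 pep 500 nM / SAM 20 uM; 2 h RT; anti-H3K9me1 Ab 0.5 ug/mL + SA donor / anti-rabbit acceptor beads 20 ug/mL each, 10 min; AlphaScreen read.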
% is scaled to controls: 0 for no effect and ±100 for the full control effect; potency is read from the fitted curve at half-maximal effect; tags tell the direction and shape of the fitted curve.

UniProt Q96KQ7, sequence (Q96KQ7 whole entry, looked up): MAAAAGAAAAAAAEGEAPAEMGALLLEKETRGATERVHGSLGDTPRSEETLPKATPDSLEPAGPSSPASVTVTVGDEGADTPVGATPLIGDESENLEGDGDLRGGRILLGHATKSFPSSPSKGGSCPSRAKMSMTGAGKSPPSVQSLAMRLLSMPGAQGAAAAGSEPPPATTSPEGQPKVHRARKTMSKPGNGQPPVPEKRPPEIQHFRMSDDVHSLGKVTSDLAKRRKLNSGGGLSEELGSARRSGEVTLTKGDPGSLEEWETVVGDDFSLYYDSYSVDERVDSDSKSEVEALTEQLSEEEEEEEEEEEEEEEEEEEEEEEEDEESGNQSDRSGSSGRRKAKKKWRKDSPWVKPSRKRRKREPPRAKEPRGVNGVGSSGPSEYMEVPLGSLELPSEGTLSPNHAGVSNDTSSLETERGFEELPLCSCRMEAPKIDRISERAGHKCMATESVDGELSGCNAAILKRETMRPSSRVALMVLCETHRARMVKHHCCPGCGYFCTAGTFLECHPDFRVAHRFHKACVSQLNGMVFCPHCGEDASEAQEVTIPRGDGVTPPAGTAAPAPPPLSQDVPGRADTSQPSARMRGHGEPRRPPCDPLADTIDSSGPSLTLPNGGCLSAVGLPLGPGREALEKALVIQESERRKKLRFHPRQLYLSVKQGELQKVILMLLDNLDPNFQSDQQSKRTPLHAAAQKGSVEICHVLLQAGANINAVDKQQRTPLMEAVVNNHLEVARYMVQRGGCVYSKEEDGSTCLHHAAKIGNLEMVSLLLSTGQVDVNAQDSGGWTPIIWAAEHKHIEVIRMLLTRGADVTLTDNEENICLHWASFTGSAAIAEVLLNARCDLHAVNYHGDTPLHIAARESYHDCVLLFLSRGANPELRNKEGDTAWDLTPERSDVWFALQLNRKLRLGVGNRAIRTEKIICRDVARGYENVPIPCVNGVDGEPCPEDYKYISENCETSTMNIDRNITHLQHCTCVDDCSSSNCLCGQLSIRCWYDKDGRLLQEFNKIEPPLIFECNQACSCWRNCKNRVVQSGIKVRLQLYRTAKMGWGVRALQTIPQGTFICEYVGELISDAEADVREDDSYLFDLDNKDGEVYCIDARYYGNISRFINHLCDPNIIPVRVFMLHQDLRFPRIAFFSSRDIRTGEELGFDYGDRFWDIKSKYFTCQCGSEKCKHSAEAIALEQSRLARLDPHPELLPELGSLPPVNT

SMILES | Potency | activity, negative = inhibition
CN(C(=O)COc1ccccc1C(=O)NCc1ccccc1)C1CCS(=O)(=O)C1 (stereo not given) | inconclusive: 89.1 µM [inhibitor, single point] | –
O=C(CSCc1cccc(Cl)c1)OCc1nc2ccsc2c(=O)[nH]1 | inconclusive: 79.4 µM [inhibitor, partial curve, poor fit] | –
Cc1nc2ccccc2c(=O)n1/N=C/c1ccc([N+](=O)[O-])o1 | inconclusive: 44.7 µM [inhibitor, partial curve, poor fit] | –
Cc1cccc2cc(C(c3nnnn3C(C)(C)C)N3CCN(C(=O)c4ccco4)CC3)c(=O)[nH]c12 (stereo not given) | inconclusive: 25.1 µM [inhibitor, single point] | –
Cc1ccc(C)c(NS(=O)(=O)c2ccc3[nH]c(=O)oc3c2)c1 | active: 44.7 µM | –
CCOC(=O)C(NC(=O)CC)(Nc1nc2c(s1)CCCC2)C(F)(F)F (stereo not given) | inconclusive: 39.8 µM [inhibitor, single point] | –
COc1cc2[nH]c(=O)n(CCCCCC(=O)NCCCN3CCOCC3)c(=O)c2cc1OC | – | inactive: -0.427% [at 12.7 µM]
Cn1c2c(c(=O)n(C)c1=O)C(c1ccc(Br)cc1)C(C#N)=C(N)N2 (stereo not given) | inactive | –
O=C(CN(c1cc(C(F)(F)F)ccc1Cl)S(=O)(=O)c1ccccc1)NCCc1ccccc1 | inconclusive: 3.98 µM [inhibitor, single point] | –
N#Cc1nc(Cc2cccc3ccccc23)oc1NCc1ccc(F)cc1 | active: 25.1 µM | –
CCOC(=O)c1c(NC2=NS(=O)(=O)c3ccccc32)sc2c1CCCCC2 | inconclusive: 89.1 µM [inhibitor, single point] | –
O=C(O)C(Cc1c[nH]c2ccccc12)NS(=O)(=O)c1cccc2nsnc12 (stereo not given) | inconclusive: 12.6 µM [inhibitor, partial curve, poor fit] | –
Cc1ccccc1C(=O)NNC(=S)NC(=O)c1cccnc1 | active: 6.31 µM | –
CC1=NN(C(N)=S)C(=O)C1N=Nc1ccc(O)cc1 (stereo not given) | inconclusive: 44.7 µM [inhibitor, partial curve] | –
Cc1cc(C)cc(OCC(=O)Nc2ccc3c(c2)C(=O)c2ccccc2C3=O)c1 | inactive | –
COc1cccc(NC(=O)CCSc2ccc3ccccc3n2)c1 | inconclusive: 3.98 µM [inhibitor, partial curve, poor fit] | –
CCOc1ccc(C(CC(=O)O)NC(=O)C(CC)c2ccccc2)cc1 (stereo not given) | inactive | –
CC1=C(C(=O)N2CCCCC2)C(c2cccc(Cl)c2)n2c(nc3ccccc32)N1 (stereo not given) | inactive | –
O=C(CSc1nnc(-c2ccco2)o1)NC(=O)Cc1ccccc1 | – | inconclusive: -60.2% [inhibitor]
C=CCn1c2ccccc2c2nnc(SCC(=O)Nc3c(C)n(C)n(-c4ccccc4)c3=O)nc21 | inconclusive: 70.8 µM [inhibitor, partial curve] | –

SMILES | Potency | activity, negative = inhibition
COc1ccc(-n2c(=O)c(CCc3ccccc3)nc3cnc(N4CCNCC4)nc32)cc1 | – | inactive: 0.994% [at 12.7 µM]
COc1cc(C(=O)Nc2nccs2)ccc1OCc1c(C)noc1C | inconclusive: 89.1 µM [inhibitor, partial curve, poor fit] | –
O=C(NCCNc1ccccc1[N+](=O)[O-])c1cc(F)c(F)cc1Cl | inconclusive: 89.1 µM [inhibitor, single point] | –
CCC(=O)Nc1ccc2c(c1)C(=O)N(C)C2=O | inactive | –
CCc1ccc(-c2cc(C(=O)Nc3ccc(S(=O)(=O)NC(C)=O)cc3)c3ccccc3n2)cc1 | inconclusive: 20 µM [inhibitor, partial curve] | –
C#CCOCCOCCOCCNc1nc(N2CCN(C(=O)C([C@@H](C)CC)n3cc(C(N)Cc4ccc(O)cc4)nn3)CC2)nc(N2CCN(C(=O)[C@H](CCC(=O)O)n3cc(C(N)CC(C)C)nn3)CC2)n1 (stereo not given in full) | – | inconclusive: -92% [inhibitor]
O=C(COC(=O)C12CC3CC(CC(O)(C3)C1)C2)NC(=O)NCc1ccco1 | inactive | –
COC(=O)c1ccc(N/C=C/C(=O)c2ccc(OC)c(OC)c2)cc1 | inconclusive: 50.1 µM [inhibitor, partial curve] | –
CC(C)NS(=O)(=O)c1ccc(NC(=O)C(C)OC(=O)CCC2CCCCC2)cc1 (stereo not given) | inconclusive: 79.4 µM [inhibitor, partial curve, poor fit] | –
Cc1cccc(C)c1NC(=O)CN(C)C(=O)CC1OC(=O)c2ccccc21 (stereo not given) | inconclusive: 44.7 µM [inhibitor, partial curve, poor fit] | –
NC(=O)CC(NC(=O)Cc1ccc(Cl)cc1)c1ccc(NCCCN2CCCC2=O)c([N+](=O)[O-])c1 (stereo not given) | inconclusive: 79.4 µM [inhibitor, single point] | –
CCN1CCN(C(c2ccc(F)cc2)c2nnnn2Cc2cccs2)CC1 (stereo not given) | inconclusive: 56.2 µM [inhibitor, partial curve, poor fit] | –
O=C(NC(=S)Nc1ccc(N2CCOCC2)cc1)c1ccco1 | inconclusive: 6.31 µM [inhibitor, single point] | –
O=C(CCl)N(c1ccc(Cl)cc1)c1c[nH]c2ccccc12 | inconclusive: 2 µM [inhibitor, partial curve, poor fit] | –
O=C(CSc1nnc(-c2ccc(O)cc2)n1Cc1ccco1)c1ccccc1 | active: 50.1 µM | –
COc1ccccc1N1CCN(C(c2cc3cc(C)ccc3[nH]c2=O)c2nnnn2C2CCCC2)CC1 (stereo not given) | – | inconclusive: -69.9% [inhibitor]
COc1cc(NC(=O)CN2C(=O)c3ccccc3Sc3ccc(C(=O)N4CCOCC4)cc32)cc(OC)c1OC | inconclusive: 50.1 µM [inhibitor, partial curve, poor fit] | –
NS(=O)(=O)c1ccc(NC(=O)/C=C/c2ccco2)cc1 | active: 44.7 µM | –
CN(Cc1ccc(F)cc1)C(=O)c1cccc(S(=O)(=O)N2CCN(c3ccccc3)CC2)c1 | inconclusive: 56.2 µM [inhibitor, partial curve] | –
Cc1ccc2cc(CN(C(=O)c3ccco3)c3cccc(C)c3C)c(=O)[nH]c2c1 | inconclusive: 31.6 µM [inhibitor, single point] | –
